Each structure is given as a SMILES string. Among all 150,000 compounds or so, about 540 (0.36%) showed an effect of 50% or more. The list shows a part of the results.

For the assay, the system named is Plasmodium falciparum. The assay is described as follows: Primary screen in NF54 nanoGlo assay, in single point, at 2uM, 72h; a lower Z score goes with more inhibition. The assay is classed as functional, Erythrocyte. As to conditions: timepoint 72 hour.
`Cc1ccc(C(=O)Nc2ccc(N3CCN(c4c(F)c(F)c(F)c(F)c4F)CC3)cc2)c(Cl)c1`: the “% Inhibition” value is reported as 29% and the Z score is reported as -0.73.

With `c1cc(CN(CCN2CCCCC2)C[C@H]2CCCN(C3CCCC3)C2)c2nonc2c1`, the “% Inhibition” value is given as -9% and the Z score came to 1.13.

Take `CCOc1ccnc(N2CC[C@H](C(=O)NC)C2)n1`: the “% Inhibition” value is reported as -7% and the Z score was found to be 1.26.

For the molecule `Oc1ccc(N2CCN(c3cc(N4CCCC4)ncn3)CC2)cc1`, the “% Inhibition” value is -13% and the Z score came to 1.27.

With `CC1(C)C[C@@H]2C[C@@](C)(CN2c2ccnc(C(=O)NCc3cccnc3)c2)C1`, the “% Inhibition” value is given as -4% and the Z score amounted to 0.5.

Turning to `CCN1CC(C(=O)N2CCCC(C(C)(C)C)CC2)CC1=O` (stereo unspecified), the “% Inhibition” value is recorded as -8% and the Z score stood at 1.01.

Regarding `COCCN(Cc1csc(COc2ccc(Cl)cc2)n1)C(=O)C1CCCC1`, the “% Inhibition” value is -8% and the Z score is reported as 1.14.

On to `C[C@@H](C(=O)Nc1cccc2ccccc12)N1CCCCC1`, for which the “% Inhibition” value is given as 36% and the Z score was -4.79.

`COc1ccc(F)cc1-c1cncc(CN2CCC(NC(C)=O)CC2)c1`: the “% Inhibition” value is recorded as -11% and the Z score is 1.19.

Consider `Cc1nn(C)c(C)c1[C@H]1OCC[C@@H]1NS(=O)(=O)C1(C)CC1`, for which the “% Inhibition” value is -9% and the Z score stood at 1.24.

On to `Cc1cnccc1CN(C)Cc1c(C)nn(C)c1Cl`, for which the “% Inhibition” value is reported as -10% and the Z score is given as 1.13.

Consider `FC(F)(F)c1nccc(N2CCCCCCC2)n1`, for which the “% Inhibition” value was -5% and the Z score is reported as 0.99.

As for `CC(=O)Nc1cccc2c1N(Cc1cccc3cccnc13)CCC2`, the “% Inhibition” value is -10% and the Z score amounted to 0.93.

Take `CN(C)c1nccc(NCC2(C(N)=O)CCOCC2)n1`: the “% Inhibition” value is reported as 8% and the Z score is -0.98.

For the molecule `Cc1ncc(CN2C(=O)NC3(CCCCCCC3)C2=O)s1`, the “% Inhibition” value was -4% and the Z score is reported as 0.64.

Take `O=C1N[C@]2(CCOC2)C(=O)N1Cc1ccc(F)c(Cl)c1`: the “% Inhibition” value was -18% and the Z score was found to be 2.46.

`c1cc(-c2nc(CN3CC4CCCC4C3)no2)cs1` (stereo unspecified): the “% Inhibition” value was determined as 14% and the Z score was -1.6.

Take `CCOC1(C)CCN(c2nccc(-c3ccnn3C)n2)CC1`: the “% Inhibition” value stood at 8% and the Z score is listed as -1.67.

With `COc1ccc(OC)c(-n2ccnc2[C@H]2CCOC(C)(C)C2)c1`, the “% Inhibition” value was -3% and the Z score amounted to 0.4.

For the molecule `Cc1ccc(S(=O)(=O)N(CC(=O)N2CCc3sccc3[C@@H]2COc2ccc(F)cc2)CC(C)C)cc1`, the “% Inhibition” value is on record as -7% and the Z score came out at 1.11.

Turning to `N#Cc1c(N)nc2c(c1-c1ccc(C(N)=O)cc1)CCc1[nH]ccc1-2`, the “% Inhibition” value is -5% and the Z score came out at 0.81.

With `N#Cc1ncn(CCc2ccc3c(c2)CCO3)n1`, the “% Inhibition” value is given as 13% and the Z score is -1.57.

On to `COCCN1CCC[C@H](NC(=O)C(=O)Nc2ccccc2Cl)C1`, for which the “% Inhibition” value is -4% and the Z score is 0.48.

As to `CC(C)[C@H](C)N(Cc1cc(NC(=O)C2CCC2)ccc1N(C)C)C(=O)Nc1cccc(F)c1`, the “% Inhibition” value was -12% and the Z score is 1.02.

Consider `O=C(NCC1CCN(c2cnsn2)CC1)[C@H]1CCCO1`, for which the “% Inhibition” value is 7% and the Z score is recorded as -1.01.

Turning to `CC(C)NC(=O)CCNc1nccc2nsnc12`, the “% Inhibition” value is recorded as -17% and the Z score was determined as 2.43.

`COCCn1cncc1Cn1ccc(-c2cccc(-c3nccs3)c2)n1`: the “% Inhibition” value is -9% and the Z score is 1.25.

As for `Cc1ccc(OCn2c(=O)sc3ccccc32)cc1C`, the “% Inhibition” value is listed as 27% and the Z score was -3.54.

For `O=c1[nH]c2ccccc2nc1-c1nc([C@H]2CCOC2)no1`, the “% Inhibition” value was -22% and the Z score is 2.51.

On to `CN(C)c1nc(-c2cccc(C(=O)NCc3ccc(CO)cc3)c2)nn1C`, for which the “% Inhibition” value is listed as -16% and the Z score came out at 2.13.

Regarding `CCc1cc(N(C)Cc2cnn(C)c2)nc(N(C)C)n1`, the “% Inhibition” value is -13% and the Z score was found to be 1.43.

For the molecule `Cc1nccc(-c2ccccc2)c1C(=O)N[C@@H]1C[C@H]2OCC[C@@H]12`, the “% Inhibition” value is -25% and the Z score was 2.23.

Turning to `COCc1cc(NCc2noc(-c3cccc(F)c3)n2)n2ncnc2n1`, the “% Inhibition” value was -8% and the Z score stood at 1.06.

`CCN(c1ccc(C(=O)Nc2cnc3[nH]nc(C)c3c2)cn1)C(C)C`: the “% Inhibition” value was found to be 37% and the Z score is -1.34.

Regarding `Cc1cccc(C2=CCN(C(=O)NCC[C@]3(O)CCOC3)CC2)c1C`, the “% Inhibition” value is on record as 10% and the Z score is recorded as -1.35.

Regarding `CCCN1C[C@@H](CNCc2cc3c(O)cccc3s2)CC1=O`, the “% Inhibition” value is on record as 4% and the Z score is recorded as -0.55.

As for `CC(=O)Nc1ccc(Br)c(C)c1`, the “% Inhibition” value was -7% and the Z score amounted to 0.97.

For the molecule `CN1CC(=O)N[C@@H](c2ccccc2F)C1=O`, the “% Inhibition” value was 15% and the Z score is recorded as -1.94.

As to `O=C(c1ccco1)N1CCc2nc(N3CCCCC3)nc(N3CCCCC3)c2C1`, the “% Inhibition” value is listed as -13% and the Z score worked out at 1.76.

For `C[C@H]1CN(C)CCN1C(=O)c1cccc(-n2cnnn2)c1`, the “% Inhibition” value is listed as -3% and the Z score stood at 0.45.

`CCc1nncn1CCNC(=O)NC(C)(C)CC(C)(C)C`: the “% Inhibition” value is on record as 35% and the Z score was -3.98.

Turning to `Cn1ccc2cc(S(=O)(=O)N3CCC[C@H](C(=O)NCc4ccccc4F)C3)ccc21`, the “% Inhibition” value was -8% and the Z score stood at 1.46.

On to `CCc1c(C(=O)NCc2cc(C)no2)nnn1-c1ccc(OC(C)C)cc1`, for which the “% Inhibition” value was -9% and the Z score was determined as 1.42.

By % Inhibition is commonly meant the change of the read-out against control, counted positive when it falls.

Source of the values: ChEMBL document CHEMBL4888484, “Replenishing the malaria drug discovery pipeline: Screening and hit evaluation of the MMV Hit Generation Library 1 (HGL1) against asexual blood stage Plasmodium falciparum ,using a nano luciferase reporter read-out” (2022).
